Assay results: PubChem BioAssay AID463173 (ICCB-Longwood Screening Facility, Harvard Medical School, 2010)
Screen size: about 52,000 compounds; about 4,300 (8.3%) were called active. No stated cut-off is given here; in the data, active means survival mostly below about 52% (no sharp cut-off); inactive means mostly above about 56%. Some of the results follow.

Each compound was assayed on DeltatarO mutant (assay: growth inhibition of S. aureus wild type versus tarO mutant, primary screen, teichoic acid synthesis inhibitors, RN4220, OD600 (AID 463173)). Conditions: OD600, 18 h, stronger effect = lower value, screened at 18.75 µg/mL (by protocol).
In the case of COc1ccc2c(CNC3CCCCCC3)c(C(=O)O)n(Cc3ccccc3F)c2c1, the survival is reported as inactive: 95%.
With CCOC(=O)c1c(S(=O)(=O)N2CCC(C(=O)Nc3ncccc3C)CC2)c(C)n(C)c1C the survival was inactive: 89%.
CCOC(=O)c1cc(-c2ccc(OC)cc2)n(CCC(=O)NC2CCCCC2)c1C was tested, and the survival was inactive: 115%.
For Cc1c(C(=O)OC2CCCCC2)[nH]c2c1C(=O)CC(c1ccc(C(C)(C)C)cc1)C2 (stereo unspecified), the survival was inactive: 97%.
In the case of CCOC(=O)c1cnc2ccc(C)cc2c1Nc1ccc(N(CC)CC)cc1, the survival is reported as active: -5%.
With CCC(=O)N1CCc2cc(Br)cc(S(=O)(=O)CCC(=O)N3CCN(c4cc(C)ccc4C)CC3)c21 the survival was inactive: 69%.
For CCCc1nnc(NC(=O)c2cc(=O)c3cc(C)c(C)cc3o2)s1, the survival was active: 35%.
With CCOc1ccc(-c2oc3ccc(C)cc3c(=O)c2O)cc1 the survival was inactive: 91%.
COCCCNC(=O)c1ccc2c(c1)nc(C)n2-c1cccc(C)c1 was tested, and the survival was inactive: 69%.
For CCN(c1ccccc1)S(=O)(=O)c1ccc(NC(=O)c2cc(=O)c3ccccc3o2)cc1, the survival was inactive: 63%.
For O=c1c2oc3ccccc3c2n(Cc2ccc(F)cc2)c(=O)n1Cc1ccco1, the survival was inactive: 71%.
In the case of CCCCn1c(=NC(=O)c2c(-c3c(F)cccc3Cl)noc2C)c(C(=O)OCC)cc2c(=O)n3ccccc3nc21, the survival is reported as inactive: 170%.
COc1ccc(CNS(=O)(=O)c2cc(Br)cc3c2N(C(C)=O)C(C)C3)cc1 (stereo unspecified) was tested, and the survival was inactive: 131%.
With O=C(NCc1cccc(F)c1)c1ccc(CN2CC(=O)N3CCCCC3C2=O)cc1 (stereo unspecified) the survival was inactive: 108%.
With CCOc1cccc(NC(=O)c2sc3nc(-c4ccc(F)cc4)ccc3c2N)c1 the survival was inactive: 73%.
For CCSc1ncc(Cl)c(C(=O)N(Cc2ccccc2)c2ccc(OC)cc2)n1, the survival was inactive: 100%.
In the case of COc1cc(CNCCSc2nnnn2C)ccc1OCc1ccc(C)cc1, the survival is reported as inactive: 59%.
O=c1c(=O)n(-c2ccccc2)ccn1Cc1c(F)cccc1Cl was tested, and the survival was active: 44%.
O=C(COCc1cc(-c2cccs2)on1)N1CCN(c2ccc(F)cc2)CC1 was tested, and the survival was inactive: 98%.
Cc1nc2cccnc2n1C1CCN(C(=O)Nc2ccccc2)CC1 was tested, and the survival was inactive: 78%.
In the case of COc1cc(C(=O)Nc2ccc(-n3c(C)nc4ccccc4c3=O)cc2)cc(OC)c1OC, the survival is reported as inactive: 57%.
In the case of Cc1cc(C)cc(N2CC(c3nnc(NC(=O)c4ccco4)s3)CC2=O)c1 (stereo unspecified), the survival is reported as inactive: 70%.
For C#CCn1c(O)c(N=NC(=O)c2cc(OC)c(OC)c(OC)c2)c2ccccc21, the survival was inactive: 62%.
For O=S(=O)(NCc1ccc(Cl)cc1)c1ccc2[nH]c3c(c2c1)CCCC3, the survival was inactive: 91%.
With CCOc1ccc(-c2cc3c(=O)n(Cc4nc(-c5ccccc5OCC)oc4C)ccn3n2)cc1Cl the survival was inactive: 190%.
With Cc1ccc(Cn2c(C)c(CNCC(C)c3ccccc3)c(C(=O)O)c2C)cc1 (stereo unspecified) the survival was inactive: 83%.
With Cc1ccc(NC(=O)c2ccc(Cl)cc2Cl)c(C(=O)c2ccccc2)c1 the survival was active: -1%.
CNC(=S)N(CCO)Cc1cc2cc3c(cc2[nH]c1=O)OCCO3 was tested, and the survival was inactive: 79%.
In the case of CC(C)OC(=O)CSc1nnc(-c2ccc(O)cc2)n1-c1ccccc1, the survival is reported as inactive: 65%.
For COCCCNC(=O)C1CCC(Cn2c(=O)c3sccc3n(C)c2=O)CC1 (stereo unspecified), the survival was inactive: 113%.
With CCC(CC)C(=O)Nc1ccccc1SCc1cc(=O)c2cccc(C)c2[nH]1 the survival was inactive: 84%.
With COc1ccc2c3c(cccc13)OCC2=O the survival was inactive: 92%.
With Cc1ccc(NC(=O)CN2CCN(c3ccccc3F)CC2)cc1F the survival was inactive: 102%.
COc1ccccc1C(=O)NCC(C)(C)CN=C1NS(=O)(=O)c2ccccc21 was tested, and the survival was inactive: 78%.
With CS(=O)(=O)c1ccc(-c2nn[nH]n2)cc1 the survival was inactive: 102%.
For Cc1ccc(-n2cnc3cc(C(=O)NCc4ccc(F)cc4)ccc32)c(C)c1, the survival was inactive: 69%.
CCCCc1ccc(-n2nc3cc(Cl)c(NC(=O)c4ccc(OC)cc4)cc3n2)cc1 was tested, and the survival was inactive: 72%.
With CCOC(=O)c1ccc2nc(C)cc(Nc3ccc(OC(C)C)cc3)c2c1 the survival was inactive: 133%.
Cc1cccc(C(=O)NCCc2nc3ccccc3n2Cc2ccc(Cl)cc2)c1 was tested, and the survival was inactive: 79%.
With Cc1cc(NC(=O)CCC(=O)N(c2ccc(F)cc2)C2(C(=O)NC3CCCCC3)CCCC2)no1 the survival was inactive: 96%.
For CC(Sc1nc2c(c(=O)[nH]1)CCCC2)C(=O)Nc1cc(C(F)(F)F)ccc1Cl (stereo unspecified), the survival was inactive: 51%.
For CCOC(=O)c1cccc(NS(=O)(=O)c2ccc3[nH]c4c(c3c2)CCCC4)c1, the survival was inactive: 80%.
For Cc1ccc(OC(C)C(=O)N2CCN(CCc3ccncc3)CC2)cc1C (stereo unspecified), the survival was inactive: 52%.
For Clc1ccc2oc(-c3ccccc3)nc2c1, the survival was inactive: 70%.
With O=S(=O)(Nc1ccc(F)c(Cl)c1)c1ccc(Br)s1 the survival was active: 10%.
For Cc1ccc(S(=O)(=O)c2nc(S(=O)(=O)c3ccc(C)cc3)c(NCCCOC(C)C)s2)cc1, the survival was inactive: 75%.
For Cc1cccc(N2CCN(C(=O)Cn3ncc4c5ccccc5n(C)c4c3=O)CC2C)c1 (stereo unspecified), the survival was inactive: 76%.
With O=c1c(S(=O)(=O)c2ccccc2)cn(Cc2ccc(F)cc2)c2cc(N3CCOCC3)c(F)cc12 the survival was inactive: 73%.
COc1ccc(C(=O)c2sc3nc(-c4ccc(C)cc4)cc(C(F)(F)F)c3c2N)cc1 was tested, and the survival was inactive: 134%.
For Cc1ccc(C)c(N2CCN(S(=O)(=O)c3ccc(-c4coc(C)n4)cc3)CC2)c1, the survival was inactive: 98%.
For CCCCc1c(C)nc2c(-c3ccc(Cl)cc3)c(C)[nH]n2c1=O, the survival was active: -2%.
With CC(C)C(=O)N1CCN(c2ccc(NC(=O)c3ccccc3)cc2)CC1 the survival was inactive: 84%.
With COc1cc(OC)cc(C(=O)Nc2ccc(-c3nc4cc(C(C)C)ccc4o3)cc2)c1 the survival was active: 45%.
For CCOC(=O)C(CC)n1nc(C)c2c(C)n(-c3ccc(C)cc3)nc2c1=O (stereo unspecified), the survival was inactive: 114%.
In the case of COc1ccc(-n2cc(-c3ccc4c(c3)OCO4)n(CC(=O)Nc3cccc(C)c3C)c2=O)c(OC)c1, the survival is reported as inactive: 56%.
For CCCCN(CCCNC(=O)c1cc(Nc2ccc(OC)cc2)nc2ccccc12)Cc1ccccc1, the survival was inactive: 86%.
CCOC(=O)CNc1nc(Cl)nc(Nc2ccccc2)n1 was tested, and the survival was inactive: 84%.
In the case of CC(=O)Nc1nonc1-c1nnc(SCC(=O)Nc2cc(Cl)ccc2C)n1C, the survival is reported as inactive: 109%.
COc1cccc(C2C=C(c3ccccc3)Nc3c(C(=O)Nc4ccccc4)cnn32)c1OC (stereo unspecified) was tested, and the survival was active: 13%.
COc1cc(C(CC(=O)Nc2cccc(C(C)=O)c2)N2Cc3ccccc3C2=O)cc(OC)c1OC (stereo unspecified) was tested, and the survival was inactive: 67%.
In the case of CCOC(=O)c1c(NC(=O)/C=C/c2ccc(C)cc2)sc(C(C)=O)c1C, the survival is reported as inactive: 79%.
O=C(COCc1cc(-c2ccc(F)cc2)on1)Nc1cc(Cl)ccc1O was tested, and the survival was inactive: 74%.
For COc1ccc(CCNC(=O)CCCn2c(=O)c3ccccc3n(Cc3ccccc3C#N)c2=O)cc1OC, the survival was active: 87%.
In the case of Cc1ccccc1-n1nc(CO)c(C(=O)NCC(c2ccccc2)c2ccccc2)n1, the survival is reported as inactive: 75%.
COc1cccc2cc(-c3nc(Nc4cccc(C)c4C)sc3C)c(=O)oc12 was tested, and the survival was inactive: 91%.
In the case of Nc1nonc1C(=O)NCCNCc1ccccc1F, the survival is reported as inactive: 56%.
COc1ccccc1NC(=O)c1nn(C)c2c1CS(=O)(=O)c1ccccc1-2 was tested, and the survival was inactive: 51%.
CN(C)S(=O)(=O)c1ccc(C(=O)NCCSc2c(-c3ccc(Br)cc3)[nH]c3ccccc23)cc1 was tested, and the survival was inactive: 74%.
For CCCCNC(=O)CC1Nc2cc(C)c(C)cc2NC1=O (stereo unspecified), the survival was inactive: 71%.
For COc1ccc(Cl)cc1NC(=O)Nc1c[nH]c(=O)[nH]c1=O, the survival was inactive: 78%.
With Cc1c(Cl)cccc1N1CCn2c1nc1c2c(=O)n(CC(=O)O)c(=O)n1C the survival was inactive: 79%.
O=C(NCCc1ccc(Cl)cc1)c1nnc(Cc2ccc(F)cc2)o1 was tested, and the survival was inactive: 88%.
With O=C(CCSCc1ccc(Cl)cc1)NCCc1ccccc1 the survival was active: -5%.
With Cc1cccc(C)c1Nc1c(-c2ccc(N3CCOCC3)cc2)nc2ncccn12 the survival was inactive: 73%.
For CCn1c(SCC(=O)NC2CCCC2)nnc1C(C)C, the survival was inactive: 97%.
For CNC(=O)c1c(NC(=O)c2cc(=O)c3cc(C)c(C)cc3o2)sc2c1CCCC2, the survival was inactive: 54%.
With COc1ccccc1CNC(=O)Cn1c(-c2ccc(F)cc2)cc(C(C)=O)c1C the survival was inactive: 88%.
Cc1ccc(CSCCC(=O)N2CCN(c3ccc(F)cc3)CC2)cc1 was tested, and the survival was inactive: 77%.
O=C(Cn1nc(Cc2ccncc2)c2ccccc2c1=O)Nc1cccc(C(F)(F)F)c1 was tested, and the survival was inactive: 71%.
With COc1ccc(N2CCN(C(=O)CN3CCSc4ccccc43)CC2)cc1 the survival was inactive: 83%.
For CCn1c(=O)cc(OCC(=O)N2CCN(c3ccc(C(C)=O)cc3)CC2)c2ccccc21, the survival was inactive: 87%.
CCc1cccc2c(C#N)cn(CC(=O)NCCOC)c12 was tested, and the survival was inactive: 103%.
For CC(=O)Nc1ccc(NC(=O)CN2C(=O)CC(c3ccco3)Sc3ccccc32)cc1 (stereo unspecified), the survival was inactive: 82%.
For Cc1ccc(-c2cc(C(F)(F)F)n3nc(-c4cccc(Br)c4)cc3n2)cc1, the survival was active: 46%.
For CCN1CCc2c(sc(NC(=O)c3ccc(S(=O)(=O)N(C)C4CCCCC4)cc3)c2C(N)=O)C1, the survival was inactive: 80%.
For N#CSC1CC(=O)N(c2ccc(F)cc2)C1=O (stereo unspecified), the survival was inactive: 81%.
For CC1Cc2cc(S(=O)(=O)CCC(=O)Nc3ccc(F)cc3)ccc2N1C(=O)C1CC1 (stereo unspecified), the survival was inactive: 101%.
CSc1ccc(CNC(=O)Cn2c(-c3cccs3)cc3cc(F)ccc32)cc1 was tested, and the survival was inactive: 101%.
In the case of O=C(/C=C\c1ccc2c(c1)OCO2)NC1CC(=O)N(c2ccccc2)C1 (stereo unspecified), the survival is reported as inactive: 134%.
For CC1CNc2ccccc2NC1=O (stereo unspecified), the survival was inactive: 85%.
CCCCc1ccc(Nc2cc(C)nc(-n3nc(C)cc3C)n2)cc1 was tested, and the survival was inactive: 79%.
